Experimental data published in PubChem BioAssay AID504832 (National Center for Advancing Translational Sciences (NCATS), 2011).
About 18,000 (5.8%) of roughly 310,000 compounds were called active. This list was built around the results that the source calls inconclusive (neither active nor inactive); the mix of calls is not that of the screen. Calls follow the shape of the dose curve; as a rule, active = well fitted inhibition curve with a large enough effect; inconclusive = small, poorly fitted or top-dose-only effect, or another doubt; inactive = no such curve, though single readings can be large or run the other way. Potencies of inconclusive entries are left out as doubtful fits.

assay: Primary qHTS for delayed death inhibitors of the malarial parasite plastid, 48 hour incubation; details: P. falciparum luciferase growth in erythrocytes; series mostly up to 28.7 µM
Procedure, shortened: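 Compounds are pin-transferred into medium, infected erythrocytes (2% hematocrit, 0.1% parasitemia final) are added, and plates sit one parasite generation at 37 C in 5% CO2. Detection reagent is then added and luminescence measured.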
% is scaled to controls: 0 for no effect and ±100 for the full control effect; potency is read from the fitted curve at half-maximal effect; tags tell the direction and shape of the fitted curve.

Structure (SMILES) | Potency | activity change, negative = inhibition
OC1(c2ccc(F)cc2)CC2CCC(C1)N2Cc1nnnn1C1CCCC1 (stereo not given) | inconclusive [inhibitor, partial curve, poor fit] | –
COc1ccc(N(CC(=O)NCCC2=CCCCC2)S(=O)(=O)c2ccc(C)cc2)cc1 | inconclusive [inhibitor, single point] | –
NC(=O)c1ccsc1NC(=O)COC(=O)c1ccccn1 | inactive | –
COC(=O)c1cc2ccccc2c(=O)s1 | inactive | –
CN(CC(=O)Nc1cccc(F)c1)C(=O)CCNC(=O)c1ccco1 | inconclusive [inhibitor, partial curve, poor fit] | –
COc1ccc(C(CNC(=O)c2ccc3c(c2)OCCO3)N(C)C)cc1 (stereo not given) | inactive | –
Cc1ccc(S(=O)(=O)N2CCC(C(=O)N3CCC4(CC3)OCCO4)CC2)cc1 | inconclusive [inhibitor, partial curve, poor fit] | –
CCOc1ccc(S(=O)(=O)N2CCCC(C(=O)NCCN3CCOCC3)C2)cc1Cl (stereo not given) | inactive | –
Cc1cc(NC(=O)C(C)SCC(=O)OCC(=O)Nc2c(C)cccc2C(C)C)no1 (stereo not given) | inactive | –
Oc1ccc(C[C@H]2CNCCN2CC2CCCCC2)cc1 | inconclusive [inhibitor, single point] | –
S=C(NCc1ccc(Cl)cc1Cl)Nc1ccccc1 | inconclusive [inhibitor, single point] | –
CCOC(=O)c1cnc2ccc(C)cc2c1Sc1ccccc1C(=O)OC | inconclusive [inhibitor, partial curve, poor fit] | –
CC1CCN(C(=S)NC(=O)c2cccs2)CC1 | inconclusive [inhibitor, partial curve, poor fit] | –
O=C(Cc1ccc(Cl)cc1)Nc1ccc(-c2cc3ccccc3oc2=O)c(Cl)c1 | inconclusive [inhibitor, single point] | –
CC(=O)Oc1ccc(C(=O)Nc2ccccc2NC(=O)c2ccc(OC(C)=O)cc2)cc1 | – | inactive: -9.36% [at 0.00184 µM]
COc1ccc(NC(=O)CN2CCN(CC(=O)Nc3ccccc3Cl)CC2)cc1Cl | inconclusive [inhibitor, single point] | –
CC(C)c1cccc(C(C)C)c1NC(=S)Nc1cccc(Cl)c1 | inconclusive [inhibitor, single point] | –
O=C(CN1C(=O)c2cccnc2Oc2ccc(Cl)cc21)NCCCc1ccccc1 | inconclusive [inhibitor, full curve, poor fit] | –
Cc1ccc(NC(=O)CN(c2ccc(C)cc2)S(=O)(=O)c2cccc3nonc23)cc1 | inconclusive [inhibitor, single point] | –
COc1cccc(CNC(=O)c2cc(C)nc3ccccc23)c1 | inactive | –
CC(=O)Nc1cccc(Nc2nc(-c3cccs3)nc3ccccc23)c1 | inconclusive [inhibitor, single point] | –
CCOc1ccc(-c2nc(CN3CCCC(C(=O)N4CCOCC4)C3)c(C)o2)cc1 (stereo not given) | inconclusive [inhibitor, single point] | –
CCOC(=O)c1c(C)[nH]c(C(=O)Nc2ccc(C)c(Cl)c2)c1C | inactive | –
COc1cc(OC)cc(N2C(=O)CC(N3CCC(C(=O)N4CCCCC4)CC3)C2=O)c1 (stereo not given) | inactive | –

Structure (SMILES) | Potency | activity change, negative = inhibition
Cc1ccccc1/C=N/NC(=O)c1ccc(-n2cnnn2)cc1 | inactive | –
Cc1ccc(S(=O)(=O)N2CCOCC2)cc1NC(=O)CSCc1c(C)noc1C | inactive | –
CCOC(=O)c1ccc(S(=O)(=O)N2CCN(C)CC2)cc1 | inconclusive [inhibitor, single point] | –
Cc1nnsc1C(=O)NC1CCCc2c1cnn2-c1ccc(C(C)(C)C)cc1 (stereo not given) | inconclusive [inhibitor, partial curve] | –
Cc1nc(-c2ccc(S(=O)(=O)Nc3cc(S(=O)(=O)N(C)C)ccc3C)s2)cs1 | inconclusive [inhibitor, single point] | –
S=c1[nH]nc(C2COc3ccccc3O2)o1 (stereo not given) | inconclusive [inhibitor, partial curve, poor fit] | –
COc1cccc(C(=O)C2CCCN(Cc3ccc4nonc4c3)C2)c1 (stereo not given) | inconclusive [inhibitor, single point] | –
CCOC(=O)N1CCN(C(=O)CSCC(=O)Nc2nc(-c3ccc(Cl)s3)cs2)CC1 | inconclusive [inhibitor, single point] | –
COc1ccc(-n2nnnc2SCC(=O)NCCc2ccc(OC)c(OC)c2)cc1 | inactive | –
Cc1c(C(=O)N2CCOCC2)oc2ccc(S(=O)(=O)N3CCCCCC3)cc12 | inconclusive [inhibitor, single point] | –
CCc1cccc(NC2c3ccccc3C(=O)N2c2cccnc2)c1 (stereo not given) | inconclusive [inhibitor, single point] | –
COC(=O)C1CCCCN1C(=O)c1ccc2oc(Cc3ccccc3)nc2c1 (stereo not given) | inactive | –
CCCCNCCOCCOc1ccccc1-c1ccccc1 | active: 10.4 µM | –
CCC(C)C(=O)Nc1nc(C)c(-c2csc(Nc3cc(Cl)ccc3OC)n2)s1 (stereo not given) | active: 10.4 µM | –
O=C(NNC(=O)C12CC3CC(CC(C3)C1)C2)c1ccccn1 | active: 4.15 µM | –
CC1(C)C2CCC1(CS(=O)(=O)NCCc1c[nH]c3ccccc13)C(=O)C2 (stereo not given) | inconclusive [inhibitor, partial curve, poor fit] | –
Cc1ccc(S(=O)(=O)NCC(=O)OCC(=O)Nc2cccc(S(=O)(=O)NC3=NCCCCC3)c2)cc1 | inactive | –
O=S(=O)(NCC1(N2CCOCC2)CCCCC1)c1ccc(Cl)cc1C(F)(F)F | inconclusive [inhibitor, single point] | –
COc1ccc(NC(C)=O)cc1S(=O)(=O)N(C)Cc1c(C)nn(-c2ccccc2)c1C | inconclusive [inhibitor, single point] | –
COCCOC(=O)C1=C(C)N=c2s/c(=C\c3cccs3)c(=O)n2C1c1cccs1 (stereo not given) | active: 4.15 µM | –
Cc1ccc(O)c(C(=O)c2cc(C#N)c(=O)n(-c3nccs3)c2)c1 | inconclusive [inhibitor, single point] | –
CC(C)C(NC(=O)c1c(F)cccc1F)C(=O)NCc1ccc(S(=O)(=O)N2CCOCC2)cc1 (stereo not given) | inconclusive [inhibitor, partial curve, poor fit] | –
CCCCc1ncc(/C=C(\Cc2cccs2)C(=O)O)n1Cc1ccc(C(=O)O)cc1 | inactive | –
Cc1ccc2c(c1)/C(=C/c1ccccc1)C(=O)N2 | inconclusive [inhibitor, single point] | –

Structure (SMILES) | Potency | activity change, negative = inhibition
CCSc1nnc(NC(=O)c2cccnc2)s1 | inactive | –
O=C(N/N=C/c1cccs1)c1cccc2cc[nH]c12 | inconclusive [inhibitor, partial curve, poor fit] | –
COC(=O)[C@@H]1C[C@@H]2CC[C@@H](O)C[C@@H]2N1Cc1ccccc1OS(=O)(=O)c1ccc(C)cc1 | active: 10.4 µM | –
Clc1ccc(CN2CCCCCC2)cc1Cl | inactive | –
COc1cccc(C(=O)N(Cc2ccccc2)Cc2cc3cc4c(cc3[nH]c2=O)OCCO4)c1 | inconclusive [inhibitor, partial curve] | –
COC(=O)c1scc(C#N)c1N/N=C(\C#N)S(=O)(=O)c1ccc(Cl)cc1 | inactive | –
COc1ccc(S(=O)(=O)N2CCC(C(=O)NCCc3ccc4c(c3)OCO4)CC2)cc1 | inconclusive [inhibitor, single point] | –
CSCc1c(C(=O)N2CCCc3ccccc32)oc2ccccc12 | active: 11.7 µM | –
COc1ccc(C(=O)Nc2ccc(NC(=O)c3cccs3)c(OC)c2)cc1Cl | inconclusive [inhibitor, single point] | –
C/C(N)=C(/C#N)C(=O)CSc1n[nH]c(-c2ccccc2Br)n1 | inconclusive [inhibitor, full curve, poor fit] | –
COCCCNC(=S)N1CCN(S(=O)(=O)c2ccc(OC)cc2)CC1 | inconclusive [inhibitor, full curve, poor fit] | –
O=C(NC(=S)N1CCOCC1)c1cn(-c2ccccc2)nc1-c1ccc(F)cc1 | inconclusive [inhibitor, single point] | –
Cc1ccc(C)c2[nH]c(=O)c(CN(CCN3CCCC3)C(=O)Nc3cccc(Cl)c3)cc12 | active: 2.33 µM | –
CC(OC(=O)CCN=C1NS(=O)(=O)c2ccccc21)C(=O)Nc1ccc(N(C)C)cc1 (stereo not given) | inactive | –
N#Cc1cc(C(=O)c2cc(Cl)ccc2O)cn(-c2ccccc2)c1=O | active: 9.28 µM | –
C/C(=N\N=C1\NC(=O)CC(C(=O)O)S1)c1ccc(F)cc1 (stereo not given) | inactive | –
CCOC(=O)C(Oc1ccc2c(-c3ccccc3)cc(=O)oc2c1C)c1ccccc1 (stereo not given) | active: 11.7 µM | –
COc1ccc(CN2CC(=O)N3[C@H]4c5ccc(OC)cc5OC[C@@H]4[C@H](c4ccccc4)[C@]3(C)C2=O)cc1 | active: 4.65 µM | –
COc1ccc(OCC(=O)Nc2ccc3c(c2)nc(CCN2CCCC2)n3C)cc1 | inconclusive [inhibitor, single point] | –
CCC(NC(=O)OCc1ccccc1)C(=O)Oc1ccc2ccc(=O)oc2c1 (stereo not given) | inactive | –
CC1CCN(CCCNC(=O)CN2CCN(Cc3ccc(Cl)cc3)C2=O)CC1 | inactive | –
Cc1ccc(-n2cnc3c(sc4nc(N5CCOCC5)c5c(c43)CCCC5)c2=O)cc1 | inconclusive [inhibitor, partial curve] | –
